# Assay results reported in PubChem BioAssay AID2675 (National Center for Advancing Translational Sciences (NCATS), 2010).
# Screen size: about 280,000 compounds; about 100 (0.036%) were called active. This list was built around the results that the source calls inconclusive (neither active nor inactive); the mix of calls is not that of the screen. Calls come from the whole dose curve; as a rule, active = well fitted inhibition curve with a large enough effect in the signal ratio, with a control signal flat (not every such curve was filed as active); inconclusive = small, poorly fitted or top-dose-only effect, or effect the other way, or a change in a side signal; inactive = no such curve, though single readings can be large or run the other way; the % refers to the signal ratio. A potency beside an inconclusive call is a rough fit, not a confirmed value. A note “side channel” means that the fit belongs to a control or component signal, not to the main read-out.
# Target: Muscleblind-like protein 1 (Homo sapiens) (UniProt Q9NR56)
# Assay: qHTS Assay for Inhibitors of MBNL1-poly(CUG) RNA binding
# Conditions: TR-FRET MBNL1-His/biotin-(CUG)12 binding, 665/545 ratio; activity change, negative = inhibition: at 57.5 µM (top of the series)
# Method in brief: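 Compounds (final 92 nM to 58 uM) are added to His-tagged MBNL1 and biotin-(CUG)12, then terbium anti-His antibody and streptavidin-XL665 (5 nM final). After 60 min at room temperature, the 665/545 nm ratio is read.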
# % is set by controls: 0 for no effect and ±100 for the full control effect; potency is the fitted concentration of half-maximal effect; tags give direction and shape of the fitted curve or compound fluorescence and quenching.
# Chain of UniProt Q9NR56 (Q9NR56 whole entry, looked up): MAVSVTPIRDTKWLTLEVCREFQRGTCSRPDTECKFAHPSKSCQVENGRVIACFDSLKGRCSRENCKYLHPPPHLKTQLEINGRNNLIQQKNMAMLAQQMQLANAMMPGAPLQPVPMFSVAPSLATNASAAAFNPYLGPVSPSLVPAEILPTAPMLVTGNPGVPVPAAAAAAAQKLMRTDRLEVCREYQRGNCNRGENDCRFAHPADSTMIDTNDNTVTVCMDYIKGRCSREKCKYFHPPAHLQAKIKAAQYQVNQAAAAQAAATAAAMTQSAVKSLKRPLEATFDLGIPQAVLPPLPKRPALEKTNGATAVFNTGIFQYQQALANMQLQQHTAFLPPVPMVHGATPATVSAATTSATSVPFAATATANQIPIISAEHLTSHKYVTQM
Structure (SMILES),Potency,"activity change, negative = inhibition"
CC1=CC2=NC(=O)/C(=C/c3cccn3Cc3ccccc3)C(=N)N2O1,"inconclusive: 31.6 µM [quencher, side channel, single point]",–
CC1(C)OC(=O)C(=CNc2ncccn2)C(=O)O1,–,inactive: -4.26%
Cc1ccc2c(c1)c1c(c(=O)n(-c3ccccc3C)c(=O)n1CC(=O)NCC1CCCO1)n2C (stereo not drawn),"inconclusive: 12.6 µM [quencher, side channel, partial curve]",–
Cc1ccc2nc3c(nc2c1C)C(O)=C3O,"inconclusive: 14.1 µM [quencher, partial curve]",–
O=C(c1ccccc1)N1CCN(c2ccc([N+](=O)[O-])c(NCc3cccnc3)c2)CC1,"inconclusive: 20 µM [quencher, side channel, partial curve]",–
COc1ccc(O)c(/C=N/Nc2nc3ccccc3[nH]2)c1,"inconclusive: 31.6 µM [quencher, side channel, single point]",–
Cc1cc(C)cc(N(CC(=O)NC2CCCCCC2)S(=O)(=O)c2c(C)[nH]c(=O)[nH]c2=O)c1,–,inactive: -9.22%
O=[N+]([O-])c1cccc(-c2ccc3nnc(SCc4ccccn4)n3n2)c1,"inconclusive: 2.82 µM [quencher, full curve, poor fit]",–
Cc1ccc([N+](=O)[O-])cc1S(=O)(=O)N1CCCN(C)CC1,"inconclusive: 44.7 µM [quencher, side channel, partial curve]",–
N#Cc1cc(Sc2ccccn2)c([N+](=O)[O-])cc1C#N,"inconclusive: 10 µM [quencher, side channel, partial curve]",–
O=C(NNc1nc2cc3c(cc2s1)OCO3)c1ccccc1,"inconclusive: 63.1 µM [inhibitor, single point]",–
COc1ccc(CNC(=S)N/N=C(/C)c2ccccc2)cc1,–,inactive: -1.59%
CCN(CC)c1ccc(/C=N/NC(=O)c2ccco2)c(O)c1,"inconclusive: 31.6 µM [quencher, side channel, single point]",–
CCOC(=O)C1=NN(c2ccccc2)C2=NC(C)=C(C(=O)OC)C(c3ccc(C)cc3)N12 (stereo not drawn),"inconclusive: 39.8 µM [quencher, side channel, single point]",–
CCOC(=O)C1CCN(C(=O)CCc2ccc(S(=O)(=O)NCC(C)C)cc2)CC1,–,inactive: 0.487%
CN(C)c1ccc(/C(=N\O)c2ccccc2)cc1,"inconclusive: 39.8 µM [quencher, side channel, single point]",–
CSc1cnc2c(N)nc(N(C)C)nc2n1,"inconclusive: 6.31 µM [quencher, side channel, single point]",–
CC(C)(C)C1=NN=C2c3ccccc3C(=O)C21 (stereo not drawn),"inconclusive: 17.8 µM [quencher, side channel, partial curve]",–
CCOC(=O)C1CCN(c2c(-c3ccccc3)c3cc(Cl)ccc3[nH]c2=O)CC1,"inconclusive: 3.98 µM [fluorescent, side channel, partial curve]",–
O=c1c2ccccc2c(/C=N/NS(=O)(=O)c2ccccc2)c(O)n1-c1ccccn1,–,inactive: 17.7%
CCOCC(=O)Nc1nnc(C2CCCCC2)s1,"inconclusive: 15.8 µM [fluorescent, side channel, single point]",–

Structure (SMILES),Potency,"activity change, negative = inhibition"
Cc1c(OCC(=O)NCCCN2CCOCC2)ccc2c(-c3ccccc3)cc(=O)oc12,"inconclusive: 14.1 µM [quencher, side channel, partial curve]",–
O=C(O)c1cccc(NC(=S)N/N=C/c2cccc(O)c2)c1,"inconclusive: 28.2 µM [quencher, side channel, partial curve]",–
CCOC(=O)Cc1nnc(NC(=O)CSc2nnc3c4ccccc4n(C(C)C)c3n2)s1,"inconclusive: 11.2 µM [quencher, side channel, partial curve]",–
COc1ccc(NC(=S)NCC(c2cccnc2)N2CCOCC2)cc1 (stereo not drawn),–,inactive: -14.4%
O=c1c2nncn2c2cccnc2n1CCNc1ncc(C(F)(F)F)cc1Cl,–,inactive: 10.2%
Cc1cccc(Nc2c([N+](=O)[O-])ccc3nonc23)c1C,"inconclusive: 1.78 µM [quencher, side channel, partial curve]",–
O=C(NC1CCCC1)c1cccc(Cn2cc([N+](=O)[O-])cn2)c1,–,inactive: 1%
O=C(NNc1ccc([N+](=O)[O-])cc1)Nc1ccccc1,"inconclusive: 7.94 µM [quencher, side channel, partial curve]",–
CCOC(=O)c1c(NC(=O)c2cccc([N+](=O)[O-])c2C(=O)O)sc2c1CCCC2,"inconclusive: 35.5 µM [quencher, side channel, single point]",–
Nc1nc(Nc2ccccc2)nc2ccccc12,–,inactive: -29%
C=CCn1c(=NC(=O)c2ccco2)sc2cc(C(=O)OC)ccc21,–,inactive: -4.93%
CCCC(=O)Nc1ccc(Sc2ccc([N+](=O)[O-])cc2)cc1,"inconclusive: 31.6 µM [quencher, side channel, partial curve]",–
O=c1[nH]c(N/N=C/c2ccccc2Br)nnc1-c1ccccc1,"inconclusive: 1.41 µM [fluorescent, side channel, full curve, poor fit]",–
CCN1CCN(C(=O)Nc2cc(Cl)ccc2OC)CC1,–,inactive: -7.23%
N/C(=N\OC(=O)/C=C/c1ccccc1Cl)c1cccnc1,"inconclusive: 35.5 µM [quencher, side channel, single point]",–
O=C(CCSCCc1ccccn1)Nc1cccc([N+](=O)[O-])c1,"inconclusive: 28.2 µM [quencher, side channel, partial curve]",–
O=C1C([N+](=O)[O-])=C(O)c2cccc3cccc1c23,–,inconclusive: 166% [activator]
COc1ccc(/C=C/CN2CCCC(CO)(Cc3cccc(Cl)c3)C2)cc1 (stereo not drawn),–,inactive: -6.88%
Cc1c(Cl)c(C(=O)NC2C3CC4CC(C3)CC2C4)nn1C (stereo not drawn),"inconclusive: 39.8 µM [quencher, side channel, single point]",–
CCCCn1nc(NC(=O)c2cccs2)c2cc3cc(OC)ccc3nc21,"inconclusive: 0.112 µM [quencher, side channel, full curve, poor fit]",–
CNC(=O)COC(=O)CNC(=O)c1cc(Cl)cc([N+](=O)[O-])c1,"inconclusive: 17.8 µM [quencher, partial curve]",–

Structure (SMILES),Potency,"activity change, negative = inhibition"
Cn1c(N)c(C(=O)NCc2ccccc2)sc1=S,"inconclusive: 31.6 µM [quencher, side channel, single point]",–
COc1ccc(CSCC(=O)Nc2ccccc2)cc1[N+](=O)[O-],"inconclusive: 31.6 µM [quencher, side channel, single point]",–
CCN(CC)C(=O)Cn1cc(C(=O)C(=O)N2CCN(c3ccc([N+](=O)[O-])cc3)CC2)c2ccccc21,"inconclusive: 10 µM [quencher, side channel, partial curve]",–
FC(F)Oc1ccc(NC(=S)NCc2ccco2)cc1Cl,"inconclusive: 39.8 µM [fluorescent, side channel, single point]",–
S=C(NCc1ccco1)N1CCN(c2nc(-c3ccc(Cl)cc3)cs2)CC1,–,inactive: -7.55%
COc1ccc(-n2nc(C(=O)NCC(=O)Nc3cccc(Cl)c3)c3ccccc3c2=O)cc1OC,"inconclusive: 20 µM [fluorescent, side channel, partial curve]",–
COc1ccc(CCn2c(=N)c(C(=O)NCCN3CCOCC3)cc3c(=O)n4ccccc4nc32)cc1OC,"inconclusive: 2.82 µM [quencher, side channel, full curve]",–
CCOC(=O)c1nnn(CC(=O)N2N=C(c3ccccc3)CC2c2ccccc2)c1C(=O)OCC (stereo not drawn),"inconclusive: 50.1 µM [inhibitor, partial curve, poor fit]",–
CCCn1c(=NC(C)=O)c(C(=O)OCC)cc2c(=O)n3ccccc3nc21,"inconclusive: 17.8 µM [quencher, side channel, partial curve]",–
COc1ccc(C(CC(=O)N2CCCC(C)C2)c2c(O)cc(OC)cc2OC)cc1 (stereo not drawn),–,inactive: -6.2%
CCOC(=O)C1CCCN(Cc2ccccc2C)C1 (stereo not drawn),–,inactive: -5.95%
CC(=O)Oc1cccc(N2C(=O)c3ccc(C(=O)O)cc3C2=O)c1,"inconclusive: 14.1 µM [quencher, side channel, partial curve]",–
CCCCN(C)C(=O)c1cc2cc3cc(OC)ccc3nc2o1,"inconclusive: 22.4 µM [quencher, side channel, partial curve]",–
O=C1N=C(N2C=CC(=C3C=CNC=C3)C=C2)/C(=C/N=NC(=O)c2ccccc2O)S1,"inconclusive: 3.55 µM [quencher, side channel, full curve]",–
O=C(c1cc(COc2ccc(F)cc2Cl)on1)N1CCN(c2cnccn2)CC1,–,inactive: -7.6%
N#CC1=C(N)C2=CCCC[C@H]2[C@H](c2ccccc2)C1(C#N)C#N,–,inactive: 3.95%
O=C(NCCCn1ccnc1)c1cc([N+](=O)[O-])cc([N+](=O)[O-])c1,"inconclusive: 8.91 µM [quencher, side channel, partial curve]",–
CCC1CCCCN1C(=S)NC1CCCCC1 (stereo not drawn),–,inactive: -1.98%
O=C(N/N=C/c1ccoc1)c1cccc([N+](=O)[O-])c1,"inconclusive: 17.8 µM [quencher, side channel, partial curve]",–
CC(C)Cn1c(O)c2ccc(C(=O)N=NC(=O)c3cccnc3)cc2c1O,"inconclusive: 22.4 µM [quencher, side channel, partial curve, poor fit]",–
C(=N\Nc1nc2ccccc2[nH]1)/c1cccs1,"inconclusive: 25.1 µM [quencher, side channel, single point]",–
